According to the supplement of paper PMC11417369:
± gives the standard deviation of the averaged measurements. Some of the results follow.

Tested on: PfAP2-EXP AP2 domain (GST-tagged)
Assay: gcPBM binding intensity (ln(normalized median fluorescence intensity)); higher = stronger DNA binding
Outline: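 Binding intensity is the highest Masliner-normalised natural-log median intensity over replicate spots in either probe orientation. To obtain it, GST-tagged P. falciparum DNA-binding domains made in E. coli were incubated for 1 h on an Agilent 4 × 180k array of primer-extended double-stranded 36-bp intergenic genomic probes plus negative controls. Detection used Alexa488 anti-GST antibody with scanning at 488 nm.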

Row | Sequence | gcPBM binding intensity (ln)
1 | ATATTTAAAGAATAAGTGCAAAATGTAATTAATTTT [GTGCAC_site9901] | 8.55 ± 0.31
2 | AAATTTTATTATAGCAGTACAATATAATATTATTAA [XGTACX_site1971] | 8.41 ± 0.3
3 | TTTTTTCCTTTTAATTGTACACAGATATAATATATT [XGTACX_site2230] | 8.69 ± 0.36
4 | AAATATTTTTTTTCTACACACATACAAATATAGATT [CACACA_site7164] | 8.57 ± 0.51
5 | ATGCCCCATATAAACACACAAATAAAAAGAATATAC [CACACA_site7292] | 9.21 ± 0.69
6 | AAATTAAAAAGAGCTTGTACAGATGTATACATAATA [XGTACX_site3882] | 8.81 ± 0.64
7 | AATTTATATGTTTTGTGTACACAATTTATTAAATTA [XGTACX_site6448] | 9.03 ± 0.29
8 | TATATGAAGCTATAGACACACATATAAAAATAGAAT [CACACA_site1313] | 8.82 ± 0.46
9 | TTTATAATTCTTACAACACACAATGTACATTTATAT [CACACA_site1261] | 8.66 ± 0.34
10 | ATTATATATAAATATACACACATATATAAAATACAT [CACACA_site5298] | 8.39 ± 0.28
11 | TACATACAGATATATACACACATATAAAATATAGAT [CACACA_site6319] | 8.57 ± 0.4
12 | AAGAGAAAAATATGGTTGCACTAAAAATATATATTT | 8.48 ± 0.25
13 | TTAACAAAATATAGCACACATAAATATATATTTATG [CACACA_site351] | 8.66 ± 0.33
14 | TTTTCTAAATATTATAGTACTCTTAATAATATTAAC [XGTACX_site4222] | 8.31 ± 0.29
15 | TAAAAAATTAATAAAGTGCATAAATATTACAATATT | 8.32 ± 0.18
16 | AATATTAAAATATAAACACACAAAATTCAATTATAT [CACACA_site5971] | 8.42 ± 0.35
17 | GACATATTAGAAGGGTGTACATACTTTTAATCATTT [XGTACX_site1698] | 8.48 ± 0.27
18 | ATTCATATATTTATTGCATGCAAAGTAAAATAAATA [TGCATGCA_site307] | 10.23 ± 0.099
19 | TACATATATATATGTATATATATATATATATAAATA [XGTACX_negctrl_site351] | 8.57 ± 0.18
20 | ATGAATAAATGAACATGTACATATATATATATATTA [XGTACX_site5005] | 8.73 ± 0.26
21 | AAATGTGCATTATGTTGTACAGTCGAAATTTTTTTT [XGTACX_site3812] | 8.49
22 | ACATAACTGATATATACACACAATACAAATATAGAT [CACACA_site7328] | 8.82 ± 0.38
23 | ATAAAAGGAATATTTGCATGTGGTAGTACATAACAT [TGCATGCA_site978] | 9.04 ± 0.028

Row | Sequence | gcPBM binding intensity (ln)
24 | TTTTCTAAAATATTCATAATAAATCAAAAAAAAAAA [GTGCAC_negctrl_site320] | 8.39 ± 0.45
25 | CATATATCATAAATATGTACGAAATAAAAGAATCAT [XGTACX_site942] | 8.79 ± 0.45
26 | TAATATTTTTATTATTAGAATTGTATATGTTTAATA [CACACA_negctrl_site1833] | 7.78 ± 0.26
27 | TATAAATATGTATATACACACTTTTAATATTCATAA [CACACA_site7856] | 8.37 ± 0.38
28 | TTTTCTTACTATTGTAGTACAATATTATATTCTTTT [XGTACX_site1925] | 8.78 ± 0.3
29 | TGCGTATTCTTATTAGGTACACATATTCGTGATAAT [XGTACX_site5681] | 8.62 ± 0.35
30 | ATAAAAAAATAAAACACACACATATAGATTATAGAT [CACACA_site7343] | 8.71 ± 0.55
31 | GATTTATATATATAAAATAATTGAATATTTTCTTTT [CACACA_negctrl_site801] | 8.11 ± 0.3
32 | TAATTTGAAAAATTGTGTACTCATAAAATAAATAAA [XGTACX_site2138] | 8.36 ± 0.37
33 | TTTATTTTTCATAATTGTACAAAAATAAATGGAAAC [XGTACX_site5144] | 8.94 ± 0.48
34 | ATAGATGATATACGTAAACACACAAATAAAAAAAAT [CACACA_site9095] | 8.9 ± 0.6
35 | TACAAATATAGACACACACACATATATATATATATA [CACACA_site585] | 10.2 ± 0.37
36 | TATATACCACATTGTTGTACGACACATTTACATTTT [XGTACX_site8370] | 9.02 ± 0.38
37 | TTCTTTTAAAGGTATACATGCGCATGGATTTTTCAT [TGCATGCA_site223] | 9.29 ± 0.39
38 | ACTGTCGTTTTAAAGAGTACATAAAATATTAAATTA [XGTACX_site3589] | 8.29 ± 0.23
39 | ATGTCTTTGAAAAAAAGTACTTAAAATTATAAAAAT [XGTACX_site147] | 8.66 ± 0.28
40 | AAAACTATTAATGCAAAAAATAAAATATAATAATAA [XGTACX_negctrl_site524] | 8.57 ± 0.35
41 | AATTAAAAAATTATCACACATATATATATATATATA [CACACA_site5789] | 10.3 ± 0.52
42 | TCAAAGCACAGATACACACACATATATATATATATA [CACACA_site287] | 10 ± 0.42
43 | TAAGGTTCATTAAAGTGTACACATAAATACCGTAAC [XGTACX_site8212] | 9.06 ± 0.27
44 | TGTAATAATTATTGCACGCACACAAAAACCTATAGA [CACACA_site2932] | 8.94 ± 0.3
45 | ATTCTGAATGTTATGCGTACATATTAATCCTATTTA [XGTACX_site1216] | 8.63 ± 0.28
46 | AAGTAAATATAATAAGGTACACATAAATAAATAAAT [XGTACX_site1740] | 8.89 ± 0.57

Row | Sequence | gcPBM binding intensity (ln)
47 | GGAAACACGATATATACACACATATTTATATTTATA [CACACA_site6250] | 8.57 ± 0.28
48 | AGAAAAGGAAAATAAACATGCAAAAATAATATTAAA [TGCATGCA_site337] | 9.1 ± 0.28
49 | TCCAAATAAATATATTGTACAGAATTATTGATACCT [XGTACX_site327] | 8.27 ± 0.33
50 | ATGTTGTTATAAAGAGTGCAACGTATATGTATCCTT [GTGCAC_site9935] | 8.71 ± 0.18
51 | TAAACATTGTAAAGGAGTACAAAATTTTTTTTATGA [XGTACX_site7757] | 8.37 ± 0.45
52 | AATAATAAAAAATACACACACATATATATATATTAC [CACACA_site3464] | 8.71 ± 0.4
53 | TTTTTTTTTTTGTATCGTACATTTATAATGTTTATA [XGTACX_site6804] | 8.61 ± 0.54
54 | AACATACAGAAACACACACACACACCCACACCCACA [CACACA_site493] | 8.63 ± 0.55
55 | TCTTACAAAAAACAAACAGAGAAAAATATAAGGAAA [XGTACX_negctrl_site520] | 8.91 ± 0.47
56 | CATACACAAGAAAATTCACACACACCCATATATATA [CACACA_site9288] | 8.88 ± 0.22
57 | TTTTTTTCATATAACACACACACAAAAATAATGTGG [CACACA_site3688] | 8.44 ± 0.4
58 | TTGTTATAGAAGCATTCACACACACCCATACATACA [CACACA_site8414] | 8.95 ± 0.35
59 | ATATATATATATCATAGTACACATATGTGTCTCGTG [XGTACX_site774] | 9.74 ± 0.21
60 | AAGTTAACAATATGAAGTACAAATGAAAAAAAAAAA [XGTACX_site666] | 8.93 ± 0.23
61 | ATATATATTTATTTATGTACGAATAAATTTACGAAT [XGTACX_site5190] | 8.45 ± 0.35
62 | TTAATAGGTCGAAGTAGTACATAAAAATATATATAT [XGTACX_site5960] | 9.265 ± 0.078
63 | AATATCATTATATAAGTGCATTTTTTAAAAGATAAA [GTGCAC_site9479] | 8.36 ± 0.2
64 | TTTAATTTGTTATACACACACAAAAAAAATTATAAA [CACACA_site3937] | 8.46 ± 0.49
65 | ATTCTATATTTAAATGCATGCACTTTCTATTTTTTT [TGCATGCA_site435] | 10.6 ± 0.52
66 | GCTAAAAGTATATGCACACACATATAGATGCACATA [CACACA_site6868] | 8.57 ± 0.14
67 | GACACTTTGAAGGGTACATGCAGAAAAAAAAAAAAA [TGCATGCA_site89] | 8.96 ± 0.43
68 | TTTTATTTATCTAATTGTACTCATTCTTTTTTGATG [XGTACX_site2876] | 8.335 ± 0.007
69 | TTTTAAAAAAAAAAAAAAAAAATTAAAATAATTCAA [TGCATGCA_negctrl_site69] | 7.61 ± 0.36

Row | Sequence | gcPBM binding intensity (ln)
70 | ATAAAATAATTAATGGGTACATAATTAAATAAAGAG [XGTACX_site3309] | 8.82 ± 0.3
71 | AATGTGCCCACGCGTACACACAAAAAAAGAAAAAAA [CACACA_site2003] | 8.35 ± 0.38
72 | CATACATAGAAACACACACACACACCCACCCACAAA [CACACA_site494] | 9.07 ± 0.64
73 | GGATAAGATGTATATACACACAATTTAAAAAAATAA [CACACA_site910] | 8.44 ± 0.38
74 | GTGTAATTTATTGTGTTGCACTTTTTTTTTTTTTTT [GTGCAC_site9644] | 8.7 ± 0.26
75 | AATACAATTTTTAACACACACACAATAATACAGATA [CACACA_site4823] | 8.79 ± 0.56
76 | TTAATATAGGAATATGCACACATATATACATACATA [CACACA_site8432] | 8.38 ± 0.23
77 | AAGATAGACTCATATGCATGCATTCACATACCAACA [TGCATGCA_site179] | 9.95 ± 0.4
78 | TGATGGGACATAAATATTGAGATGATCATAAGATAA [TGCATGCA_negctrl_site276] | 8.7 ± 0.46
79 | TATATCATAAAAAATTGTACATATATATATTATATA [XGTACX_site6726] | 8.35 ± 0.28
80 | AAAGATAATATATGCACACATATAAATATATAAATA [CACACA_site3477] | 8.45 ± 0.34
81 | TATTTATTATATAAATGTACATAATATATGTATGTC [XGTACX_site2815] | 8.4 ± 0.36
82 | AAAAAAAAAAAAAGTACACACTTTTGCGTACAAGTA [CACACA_site5672] | 8.37 ± 0.36
83 | AAATATAATTTGCGATGTACACATATATATTTATTT [XGTACX_site1568] | 8.5 ± 0.42
84 | TGAAATGATATATAAACACACATATATAAATATGTA [CACACA_site7616] | 8.18 ± 0.42
85 | AAGAAAAAAAAAAAAAAAAAAAAAAAAAATTTATGA [TGCATGCA_negctrl_site294] | 7.83 ± 0.66
86 | CAGTTATTTTAATGTGGTACACAATTTTAAAATTAT [XGTACX_site8571] | 8.31 ± 0.3
87 | AATTTTATAAAAAGTAGTACATATCAAACACCTTGA [XGTACX_site2297] | 8.72 ± 0.38
88 | TACCTATACCTATACACACACACACGGAAATAAATA [CACACA_site6750] | 8.87 ± 0.5
89 | ATATAAAATGAACATAGTACTTTTTATATATTTTAA [XGTACX_site7461] | 8.05 ± 0.36
